Assays:
not read = substrate: CN(C)CCCN1c2ccccc2CCc2ccccc21; experiment: not read
[1] = substrate: COc1ccc([C@@H]2Sc3ccccc3N(CCN(C)C)C(=O)[C@@H]2OC(C)=O)cc1; experiment: Drug metabolism in assessed as human CYP3A4-mediated metabolism; assay type: ADME

B1: Cytochrome P450 3A4 (Homo sapiens) (protein)
chain: MALIPDLAMETWLLLAVSLVLLYLYGTHSHGLFKKLGIPGPTPLPFLGNILSYHKGFCMFDMECHKKYGKVWGFYDGQQPVLAITDPDMIKTVLVKECYSVFTNRRPFGPVGFMKSAISIAEDEEWKRLRSLLSPTFTSGKLKEMVPIIAQYGDVLVRNLRREAETGKPVTLKDVFGAYSMDVITSTSFGVNIDSLNNPQDPFVENTKKLLRFDFLDPFFLSITVFPFLIPILEVLNICVFPREVTNFLRKSVKRMKESRLEDTQKHRVDFLQLMIDSQNSKETESHKALSDLELVAQSIIFIFAGYETTSSVLSFIMYELATHPDVQQKLQEEIDAVLPNKAPPTYDTVLQMEYLDMVVNETLRLFPIAMRLERVCKKDVEINGMFIPKGVVVMIPSYALHRDPKYWTEPEKFLPERFSKKNKDNIDPYIYTPFGSGPRNCIGMRFALMNMKLALIRVLQNFSFKPCKETQIPLKLSLGGLLQPEKPVVLKVESRDGTVSGA
With B1 the Km (not read) was 5 µM, the Vmax (not read) was 0.000117 µmol/min and the Km [1] was 23 µM. It also gave a Vmax [1] of 0.00188 µmol/min.
